Assay results as given in the supplement of paper PMC4967469.
By IC50 is meant the dose at which the fit gives 50% viability; a fit beyond the top or the lowest dose is shown as a bound at that dose. For AUC the same curve is integrated over the 256-fold range of doses and scaled to a fraction; the more sensitive the line, the further below 1. For some of these results: The top dose, if marked as inferred, is not printed in the source and was worked back from the curve model. For some of these results: An entry number marks a drug with two screens in the source, which often give different values.

Key:
Assay in all cases: Viability of human cancer cell lines after 72 h of drug (GDSC screen)
[1] = compound: CC1(C)CNc2cc(NC(=O)c3cccnc3NCc3ccncc3)ccc21 [AMG-706]; conditions: top dose 2 µM; top dose inferred
Procedure: (§1)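 Human cancer cell lines in 384-well plates, medium with 10% serum, drug for 72 h over a 256-fold dose range (nine 2-fold or five 4-fold steps up to the top dose). Adherent lines were fixed and stained with the nucleic acid dye Syto60, suspension lines read with resazurin; signal relative to control wells, capped at 0 and 100%. One two-parameter sigmoid per drug and line, fitted in a mixed model over all curves with the slope shared within a line.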

[2] = compound: CCOc1nc(NC(=O)Cc2cc(OC)ccc2OC)cc(N)c1C#N [JNK Inhibitor VIII]; conditions: top dose 10 µM; top dose inferred
Procedure: as §1

[3] = compound: COC(=O)[C@H](CCSC)NC(=O)c1ccc(NC[C@@H](N)CS)cc1-c1ccccc1 [FTI-277]; conditions: top dose 1.024 µM; top dose inferred
Procedure: as §1

[4] = compound: Cc1sc2c(c1C)C(c1ccc(Cl)cc1)=N[C@@H](CC(=O)OC(C)(C)C)c1nnc(C)n1-2 [JQ1]
Procedure: as §1

[5] = compound: c1ccc2c(CCNc3ccc(Nc4ccncc4)cc3)c[nH]c2c1 [JNJ-26854165]; conditions: top dose 10 µM
Procedure: as §1

[6] = compound: COCC[n+]1c2c(n(Cc3cnccn3)c1C)C(=O)c1ccccc1C2=O [YM155]; conditions: top dose 5.12 µM
Procedure: as §1

[7] = compound: CC1=C2C[C@H]3[C@@H](CC=C4C[C@@H](O)CC[C@@]43C)[C@@H]2CC[C@]12O[C@@H]1C[C@H](C)CN[C@H]1[C@H]2C [Cyclopamine]; conditions: top dose 16 µM; top dose inferred
Procedure: as §1

[8] = compound: O=C(/C=C/c1cccc(S(=O)(=O)Nc2ccccc2)c1)NO [Belinostat]; conditions: top dose 20 µM; top dose inferred
Procedure: as §1

[9] = compound: OCCCNc1cc(-c2ccnc(Nc3cccc(Cl)c3)n2)ccn1 [CGP-60474]; conditions: top dose 0.256 µM; top dose inferred
Procedure: as §1

[10] = compound: C[C@]1(O)C[C@@H](c2nc(-c3ccc4ccc(-c5ccccc5)nc4c3)c3c(N)nccn32)C1 [OSI-906]; conditions: top dose 2.56 µM; top dose inferred
Procedure: as §1

[11] = compound: CN1CCN(c2ccc([N+](=O)[O-])c3no[n+]([O-])c23)CC1 [NSC-207895]; conditions: top dose 20 µM; top dose inferred
Procedure: as §1

[12] = compound: CC(=O)O[C@@]12CO[C@@H]1C[C@H](O)[C@@]1(C)C(=O)[C@H](O)C3=C(C)[C@@H](OC(=O)[C@H](O)[C@@H](NC(=O)OC(C)(C)C)c4ccccc4)C[C@@](O)([C@@H](OC(=O)c4ccccc4)[C@H]21)C3(C)C [Docetaxel]; conditions: top dose 0.0125 µM
Procedure: as §1

[13] = compound: Cc1ccc(C(=O)N(CCCN)[C@@H](c2nc3cc(Cl)ccc3c(=O)n2Cc2ccccc2)C(C)C)cc1 [SB-715992]; conditions: top dose 0.128 µM; top dose inferred
Procedure: as §1

[14] = top dose 1 µM, screen: GDSC drug entry 1218, top dose inferred
[15] = top dose 2.56 µM, screen: GDSC drug entry 163

Row | Cell Line | AUC [1] | IC50 [1] [nM] | AUC [2] | IC50 [2] [nM] | AUC [3] | IC50 [3] [nM] | AUC [4, 14] | IC50 [4, 14] [nM] | AUC [4, 15] | IC50 [4, 15] [nM] | AUC [5] | IC50 [5] [nM] | AUC [6] | IC50 [6] [nM] | AUC [7] | IC50 [7] [nM] | AUC [8] | IC50 [8] [nM] | AUC [9] | IC50 [9] [nM] | AUC [10] | IC50 [10] [nM] | AUC [11] | IC50 [11] [nM] | AUC [12] | IC50 [12] [nM] | AUC [13] | IC50 [13] [nM]
1 | NB5 (neuroblastoma, adherent) | 0.985 | > 2000 | 0.966 | > 10000 | 0.984 | > 1020 | 0.976 | > 1000 | 0.87 | 2440 | 0.961 | > 10000 | 0.736 | 1520 | 0.987 | > 16000 | 0.686 | 4180 | 0.927 | > 256 | 0.907 | > 2560 | 0.987 | > 20000 | 0.874 | 12.5 | 0.837 | 87.2
2 | NB10 (neuroblastoma, adherent) | 0.988 | > 2000 | 0.972 | > 10000 | 0.987 | > 1020 | 0.987 | > 1000 | 0.833 | 1590 | 0.862 | 8190 | 0.766 | 1840 | 0.981 | > 16000 | 0.459 | 967 | 0.961 | > 256 | 0.676 | 488 | 0.987 | > 20000 | 0.895 | > 12.5 | 0.814 | 67.8
3 | NB69 (neuroblastoma, adherent) | 0.962 | > 2000 | 0.984 | > 10000 | 0.985 | > 1020 | – | – | 0.448 | 117 | 0.813 | 4630 | 0.383 | 159 | 0.989 | > 16000 | 0.343 | 484 | 0.823 | 129 | 0.686 | 496 | 0.903 | > 20000 | 0.828 | 6.54 | 0.754 | 38.8
4 | NCI-H64 (small cell lung carcinoma, suspension) | 0.994 | > 2000 | 0.996 | > 10000 | 0.995 | > 1020 | – | – | 0.631 | 333 | 0.978 | > 10000 | 0.011 | < 20 | 0.996 | > 16000 | 0.265 | 331 | 0.783 | 80.1 | 0.993 | > 2560 | 0.585 | 2010 | 0.981 | > 12.5 | 0.705 | 25.4
5 | NCI-H446 (small cell lung carcinoma, semi-adherent) | 0.984 | > 2000 | 0.985 | > 10000 | 0.983 | > 1020 | 0.964 | > 1000 | 0.751 | 900 | 0.986 | > 10000 | 0.029 | < 20 | 0.956 | > 16000 | 0.276 | 275 | 0.849 | 215 | 0.986 | > 2560 | 0.834 | 14400 | 0.815 | 7.49 | 0.695 | 29.5
